# Reference: the supplement of paper PMC8728848
# The list shows a part of the results.
# B1: MSMEG3662-2a (Mycobacterium smegmatis), A0QYH7_MYCS2 (protein)
# chain: MGDTLTAGQKLERGGSLQSGNGAYTLTLQDDGNLVLYARDKAVWSTGTNGQDVVRAEVQTDGNFVLYTAEKPVWHTDTKGKKEVKLVLQDDRNLVLYAKDGPAWSSKTDTTEPPPPAPEPEKEAEVAPAAAEEAAPAPVAEPAPAEPAPAAPPPAPPAPRTYTVVSGDTLWAIAERFYGDGSKYQQIADASGIANPDLIHPGQVLTIP
# How the values were obtained:
# Experiment in all cases: glycan array binding signal (z-score within array); higher = stronger binding
# Settings in all cases: glycan notation: IUPAC condensed, linker removed
# [1] = target: Fuc(a1-2)[GalNAc(a1-3)]Gal(b1-3)GlcNAc(b1-3)GalNAc
# How it was run: (§1)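 The Consortium for Functional Glycomics database supplied 3228 glycan arrays, of which those lacking an available protein sequence were dropped. The binding signal, a within-array Z-score, was averaged across arrays of the same protein sequence and across linkers. Negative scores can be read as non-binding.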
# [2] = target: Fuc(a1-2)[GalNAc(a1-3)]Gal(b1-3)GlcNAc(b1-6)GalNAc
# How it was run: as §1
# [3] = target: Fuc(a1-2)[GalNAc(a1-3)]Gal(b1-4)Glc
# How it was run: as §1
# [4] = target: Fuc(a1-2)[GalNAc(a1-3)]Gal(b1-4)GlcNAc
# How it was run: as §1
# [5] = target: Fuc(a1-2)[GalNAc(a1-3)]Gal(b1-4)GlcNAc(b1-2)Man
# How it was run: as §1
# [6] = target: Fuc(a1-2)[GalNAc(a1-3)]Gal(b1-4)GlcNAc(b1-2)Man(a1-3)[Fuc(a1-2)[GalNAc(a1-3)]Gal(b1-4)GlcNAc(b1-2)Man(a1-6)]Man(b1-4)GlcNAc(b1-4)GlcNAc
# How it was run: as §1
# [7] = target: Fuc(a1-2)[GalNAc(a1-3)]Gal(b1-4)GlcNAc(b1-2)Man(a1-3)[Fuc(a1-2)[GalNAc(a1-3)]Gal(b1-4)GlcNAc(b1-2)Man(a1-6)]Man(b1-4)GlcNAc(b1-4)[Fuc(a1-6)]GlcNAc
# How it was run: as §1
# [8] = target: Fuc(a1-2)[GalNAc(a1-3)]Gal(b1-4)GlcNAc(b1-3)Gal(b1-4)GlcNAc
# How it was run: as §1
# [9] = target: Fuc(a1-2)[GalNAc(a1-3)]Gal(b1-4)GlcNAc(b1-3)Gal(b1-4)GlcNAc(b1-3)Gal(b1-4)GlcNAc
# How it was run: as §1
# [10] = target: Fuc(a1-2)[GalNAc(a1-3)]Gal(b1-4)GlcNAc(b1-3)GalNAc
# How it was run: as §1
# [11] = target: Fuc(a1-2)[GalNAc(a1-3)]Gal(b1-4)GlcNAc(b1-3)[Fuc(a1-2)[GalNAc(a1-3)]Gal(b1-4)GlcNAc(b1-6)]GalNAc
# How it was run: as §1
# [12] = target: Fuc(a1-2)[GalNAc(a1-3)]Gal(b1-4)GlcNAc(b1-6)GalNAc
# How it was run: as §1
# [13] = target: Fuc(a1-2)[GalNAc(a1-3)]Gal(b1-4)[Fuc(a1-3)]GlcNAc
# How it was run: as §1
# [14] = target: Fuc(a1-2)[GalNAc(a1-3)]Gal(b1-4)[Fuc(a1-3)]GlcNAc(b1-3)GalNAc
# How it was run: as §1
# [15] = target: Fuc(a1-2)[GalNAc(a1-4)]Gal(b1-4)GlcNAc
# How it was run: as §1
# [16] = target: Fuc(a1-2)[GalNAc(b1-3)]Gal
# How it was run: as §1
# Fuc(a1-3)GlcNAc = target: Fuc(a1-3)GlcNAc
# How it was run: as §1
# [17] = target: Fuc(a1-3)[Gal(b1-4)]Glc6S
# How it was run: as §1
# [18] = target: Fuc(a1-3)[Gal(b1-4)]GlcNAc
# How it was run: as §1
# [19] = target: Fuc(a1-3)[Gal(b1-4)]GlcNAc(b1-2)Man
# How it was run: as §1
# [20] = target: Fuc(a1-3)[Gal(b1-4)]GlcNAc(b1-2)Man(a1-3)[Fuc(a1-3)[Gal(b1-4)]GlcNAc(b1-2)Man(a1-6)]Man(b1-4)GlcNAc(b1-4)GlcNAc
# How it was run: as §1
# [21] = target: Fuc(a1-3)[Gal(b1-4)]GlcNAc(b1-2)Man(a1-3)[Fuc(a1-3)[Gal(b1-4)]GlcNAc(b1-2)Man(a1-6)]Man(b1-4)GlcNAc(b1-4)[Fuc(a1-6)]GlcNAc
# How it was run: as §1
# [22] = target: Fuc(a1-3)[Gal(b1-4)]GlcNAc(b1-3)Gal(b1-3)[Fuc(a1-4)]GlcNAc
# How it was run: as §1
# [23] = target: Fuc(a1-3)[Gal(b1-4)]GlcNAc(b1-3)Gal(b1-4)[Fuc(a1-3)]GlcNAc
# How it was run: as §1
# [24] = target: Fuc(a1-3)[Gal(b1-4)]GlcNAc(b1-3)Gal(b1-4)[Fuc(a1-3)]GlcNAc(b1-3)Gal(b1-4)[Fuc(a1-3)]GlcNAc
# How it was run: as §1
# [25] = target: Fuc(a1-3)[Gal(b1-4)]GlcNAc(b1-3)GalNAc
# How it was run: as §1
# [26] = target: Fuc(a1-3)[Gal(b1-4)]GlcNAc(b1-6)GalNAc
# How it was run: as §1
# [27] = target: Fuc(a1-3)[Gal(b1-4)]GlcNAc(b1-6)[Gal(b1-3)GlcNAc(b1-3)]Gal(b1-4)Glc
# How it was run: as §1
# [28] = target: Fuc(a1-3)[Gal(b1-4)]GlcNAc6S
# How it was run: as §1
# [29] = target: Fuc(a1-3)[Gal3S(b1-4)]Glc
# How it was run: as §1
# [30] = target: Fuc(a1-3)[Gal3S(b1-4)]GlcNAc
# How it was run: as §1
# [31] = target: Fuc(a1-3)[Gal3S(b1-4)]GlcNAc6S
# How it was run: as §1
# [32] = target: Fuc(a1-3)[GalNAc(b1-4)]GlcNAc
# How it was run: as §1
# [33] = target: Fuc(a1-3)[GalNAc(b1-4)]GlcNAc6S
# How it was run: as §1
# Fuc(a1-4)GlcNAc = target: Fuc(a1-4)GlcNAc
# How it was run: as §1
# Fuc(b1-3)GlcNAc = target: Fuc(b1-3)GlcNAc
# How it was run: as §1
# Gal(a1-2)Gal = target: Gal(a1-2)Gal
# How it was run: as §1
binder,measurement,setting,value
B1,glycan array binding signal (z-score),[1],0.068
same,glycan array binding signal (z-score),[2],-0.16
same,glycan array binding signal (z-score),[3],-0.092
same,glycan array binding signal (z-score),[4],-0.113
same,glycan array binding signal (z-score),[5],-0.046
same,glycan array binding signal (z-score),[6],-0.027
same,glycan array binding signal (z-score),[7],-0.074
same,glycan array binding signal (z-score),[8],-0.03
same,glycan array binding signal (z-score),[9],-0.147
same,glycan array binding signal (z-score),[10],-0.141
same,glycan array binding signal (z-score),[11],-0.074
same,glycan array binding signal (z-score),[12],-0.076
same,glycan array binding signal (z-score),[13],-0.093
same,glycan array binding signal (z-score),[14],-0.018
same,glycan array binding signal (z-score),[15],-0.155
same,glycan array binding signal (z-score),[16],-0.143
same,glycan array binding signal (z-score),Fuc(a1-3)GlcNAc,-0.066
same,glycan array binding signal (z-score),[17],-0.126
same,glycan array binding signal (z-score),[18],-0.042
same,glycan array binding signal (z-score),[19],-0.036
same,glycan array binding signal (z-score),[20],0.087
same,glycan array binding signal (z-score),[21],-0.103
same,glycan array binding signal (z-score),[22],-0.188
same,glycan array binding signal (z-score),[23],0.074
same,glycan array binding signal (z-score),[24],-0.178
same,glycan array binding signal (z-score),[25],-0.161
same,glycan array binding signal (z-score),[26],0.055
same,glycan array binding signal (z-score),[27],-0.214
same,glycan array binding signal (z-score),[28],0.036
same,glycan array binding signal (z-score),[29],0.023
same,glycan array binding signal (z-score),[30],-0.028
same,glycan array binding signal (z-score),[31],-0.129
same,glycan array binding signal (z-score),[32],0.413
same,glycan array binding signal (z-score),[33],-0.173
same,glycan array binding signal (z-score),Fuc(a1-4)GlcNAc,11.1
same,glycan array binding signal (z-score),Fuc(b1-3)GlcNAc,-0.062
same,glycan array binding signal (z-score),Gal(a1-2)Gal,-0.085
